Assay results taken from the BET-seq Pho4 binding data (Le et al. 2018).
This is one part of the list. The energies were worked out here from pooled read counts, against the library average; single values are noisy.

target: T1, Pho4 (S. cerevisiae) (UniProt P07270); experiment: relative binding free energy (BET-seq); higher = weaker binding; settings: reference: library average
T1 sequence: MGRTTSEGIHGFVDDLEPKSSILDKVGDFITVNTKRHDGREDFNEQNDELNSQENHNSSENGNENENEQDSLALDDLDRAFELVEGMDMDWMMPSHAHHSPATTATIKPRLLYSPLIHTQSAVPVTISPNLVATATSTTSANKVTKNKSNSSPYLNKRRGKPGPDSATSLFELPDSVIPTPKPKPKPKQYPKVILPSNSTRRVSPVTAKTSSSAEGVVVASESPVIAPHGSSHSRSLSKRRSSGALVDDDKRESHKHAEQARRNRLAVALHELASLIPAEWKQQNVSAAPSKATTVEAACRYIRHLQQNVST

Sequence | relative binding free energy [kJ/mol]
TAAGTCACGTGGTGGC | 0.0837
GGAGTCACGTGCAGGG | 0.293
TGGTCCACGTGTAGAG | 0.544
TTTTCCACGTGGACGG | 0.753
TTTGGCACGTGGAAAG | 0.293
AGTAGCACGTGGCGAG | -0.753
AAGTACACGTGGTAAT | 0.377
TGGGACACGTGATGGT | 0.167
AATAGCACGTGGGGCG | -1.09
TAGTTCACGTGTGTTT | 1.42
CGTGGCACGTGGTAGG | -0.711
TCAGTCACGTGGTGTT | -0.167
GCTTTCACGTGGGGTT | 1.13
CAATTCACGTGATGTT | 1.13
TGTGACACGTGAAATG | 0.795
TAGTACACGTGACGTT | 0.669
TTGGACACGTGTATGG | 0.251
AGGGGCACGTGGGTGC | -1.13
TTTATCACGTGTCATG | 1.38
GGATTCACGTGAAGTA | 1.21
GGGTTCACGTGATTCA | 1.38
TGGTGCACGTGTTTCA | 0.293
AGCTGCACGTGGGCGG | -1.09

Sequence | relative binding free energy [kJ/mol]
GTTGGCACGTGTCAAT | 0.0418
GTATGCACGTGGTAGA | -0.335
GGATTCACGTGTGCGT | 0.92
GGTGACACGTGATGTA | 0.586
TAGATCACGTGGCTTG | 0.418
CTATACACGTGTTGTT | -0.335
ATGTTCACGTGCTATG | 0.962
GTGGGCACGTGGGATT | -0.335
CTGGGCACGTGCGATG | -0.418
ATGCGCACGTGGAGGC | -0.0837
TTCTTCACGTGAGCAG | 2.55
GTAGCCACGTGCGTGT | -0.251
GGTGACACGTGCAAGT | 0.711
TATGGCACGTGAAGAA | 0.418
AAGTACACGTGCTGGT | -0.335
ATGGGCACGTGTCGGT | -0.502
GATTTCACGTGAGGAA | 1.63
TAACTCACGTGATGGT | 1.21
TCGAGCACGTGGGAGG | -0.753
TCGGCCACGTGTTGTA | 0.0418
GGGGACACGTGTGAAT | 0.92
AGGGTCACGTGCTTAG | 0.335
CGATTCACGTGGGCGT | 1.17

Sequence | relative binding free energy [kJ/mol]
TGTGGCACGTGTTACT | -0.837
TTTCGCACGTGGGGTG | -0.544
TGTGTCACGTGAGTTG | 0.879
GATTTCACGTGAGAGA | 2.26
TGGTGCACGTGAGTAT | 0.669
GTATGCACGTGTTATG | 0.167
AGCGTCACGTGAGATT | 0.92
TAGGGCACGTGGTTAT | -0.46
TTGTTCACGTGAGTTG | 1.76
TTAGGCACGTGGAACG | -0.544
GCGTGCACGTGGGAAA | 0.167
GGCTTCACGTGCTGGA | 1.72
TAGTGCACGTGTGTAA | 0.0418
TAGTTCACGTGAAAAT | 1.46
CGAGGCACGTGTAAGA | 1
AGTGACACGTGTACAG | 0.0837
AGGGCCACGTGCTGTG | -0.837
TGTCGCACGTGTGCGG | -0.126
TTGATCACGTGCGTAT | 0.837
AATTTCACGTGATGCG | 1.55
TTGGTCACGTGACGCA | 1.76
GGTGCCACGTGGCGTA | -0.586
AGTTTCACGTGGTCTG | 1.13

Sequence | relative binding free energy [kJ/mol]
TTATGCACGTGTCAGG | 0
TGAGTCACGTGTAAGG | 0.962
AGTAGCACGTGTAGGT | -0.209
TAATGCACGTGGCGTA | -0.418
TATCGCACGTGTGTGC | 0.126
TCGTGCACGTGGATGG | -0.209
TTAAACACGTGGGTAC | 0.251
GCTTGCACGTGTTCGT | 0.293
AGTATCACGTGGGTTT | 0.335
AGTGTCACGTGATGGA | 0.795
CGTTTCACGTGGTATA | 0.795
AATTTCACGTGTAGTT | 1.17
GGATGCACGTGCAGTT | 0.0418
GCGGACACGTGGTTGC | 1.17
TTAATCACGTGTTCAT | 0.795
GGTGCCACGTGAGCGT | 0.628
GGGTGCACGTGTTGGC | 0.209
GATGGCACGTGTCGTA | 0.126
CTTTGCACGTGGTGAT | 0.0837
TTCGGCACGTGGCTTT | -0.837
GTATGCACGTGTAAAT | 1.55
ATTTTCACGTGCGGTT | 0.669
ATTAGCACGTGAGGGA | 0.669

Sequence | relative binding free energy [kJ/mol]
GGCGGCACGTGCAGGA | 0.126
TTCGACACGTGGTTAT | -0.377
GTGGTCACGTGAATCT | 1.51
GTTGTCACGTGGTAGG | 0.335
TTTGGCACGTGGAATA | 0.209
TGGTGCACGTGTCAAT | -0.126
TATTACACGTGTCTGG | 0.377
TAAGGCACGTGTGTCT | -0.377
TTCGTCACGTGTAGAG | 0.502
ATTTACACGTGATATT | 0.962
GGGTGCACGTGAGCAA | 0.711
GGGAGCACGTGTTTGG | -0.293
GTTTACACGTGTTCAG | 0.795
GAGGTCACGTGCGGAT | 0.502
TTGATCACGTGTGAGC | 0.795
AGTGTCACGTGTGCGG | 0.711
CAGTTCACGTGTAGGA | 0.962
CTGGGCACGTGAACGG | 0.753
GTTAGCACGTGGGTCA | -0.669
ACTGTCACGTGGTGGG | 0
AGGGCCACGTGTGCTG | -0.0418
AGAGACACGTGTGGTG | -0.167
GGAGGCACGTGGCGTG | -0.837
